Results reported in PubChem BioAssay AID588342 (National Center for Advancing Translational Sciences (NCATS), 2011).
Out of some 360,000 compounds screened, about 25,000 (6.9%) were called active. Inconclusive means that the source gave no clear call. Such entries were picked first, then a sample of the others. Calls follow the shape of the dose curve; as a rule, active = well fitted inhibition curve with a large enough effect; inconclusive = small, poorly fitted or top-dose-only effect; inactive = flat fitted curve, though single readings scatter. A potency beside an inconclusive call is a rough fit, not a confirmed value.

Biological target: Luciferin 4-monooxygenase (Photinus pyralis) (UniProt P08659)
Experiment: qHTS profiling assay for firefly luciferase inhibitor/activator using purifed enzyme and Km concentrations of substrates (counterscreen for miR-21 project); also: nearly all actives have a fitted effect of over 55% in size;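 as to activity change, negative = inhibition: plate controls were vehicle for no effect and reference inhibitor for full effect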
Details: purified FLuc, luminescence inhibition; activity change, negative = inhibition: at 57.5 µM (top of the series)
How it was run: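 Biochemical qHTS of compounds, final roughly 60 µM downward over six points, against 10 nM purified firefly luciferase using Km concentrations of substrates (10 uM D-luciferin, 10 uM ATP) in Tris acetate pH 7.5 buffer; luminescence output.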
Potency is read from the fitted curve at half-maximal effect; tags tell the direction and shape of the fitted curve.

Sequence of UniProt P08659 (P08659 whole entry, looked up): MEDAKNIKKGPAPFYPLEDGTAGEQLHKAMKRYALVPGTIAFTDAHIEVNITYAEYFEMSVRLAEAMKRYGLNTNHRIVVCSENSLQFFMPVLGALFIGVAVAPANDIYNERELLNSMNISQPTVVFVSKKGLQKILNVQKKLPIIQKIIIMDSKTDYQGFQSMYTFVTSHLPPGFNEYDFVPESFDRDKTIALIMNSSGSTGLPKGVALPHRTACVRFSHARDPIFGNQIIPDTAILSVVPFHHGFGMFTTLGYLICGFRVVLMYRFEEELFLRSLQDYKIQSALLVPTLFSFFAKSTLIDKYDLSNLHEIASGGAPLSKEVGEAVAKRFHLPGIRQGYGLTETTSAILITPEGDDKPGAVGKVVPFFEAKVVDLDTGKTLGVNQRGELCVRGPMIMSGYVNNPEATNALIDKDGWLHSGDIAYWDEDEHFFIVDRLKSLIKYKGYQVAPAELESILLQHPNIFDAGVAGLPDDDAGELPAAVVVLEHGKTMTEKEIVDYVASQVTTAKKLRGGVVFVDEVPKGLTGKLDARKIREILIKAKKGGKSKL

Row | SMILES | Potency | activity change, negative = inhibition
1 | Brc1ccc(N=Cc2ccccn2)cc1 | inconclusive: 30.1 µM [inhibitor, single point] | –
2 | CN1C2CCC1/C(=C/c1cccn1C)C(=O)/C2=C\c1cccn1C | – | inactive: 0.757%
3 | COc1cccc(-c2coc3cc4oc(=O)c(CCC(=O)O)c(C)c4cc23)c1 | inconclusive: 21.3 µM [inhibitor, single point] | –
4 | CC(=O)Nc1ccc(C(=O)Nc2ccc(S(=O)(=O)N3CCOCC3)cc2)cc1 | inconclusive: 21.3 µM [inhibitor, partial curve, poor fit] | –
5 | COc1cc([N+](=O)[O-])ccc1NC(=O)Nc1ccc2c(c1)OCCO2 | active: 6.75 µM | –
6 | COc1ccc(NS(=O)(=O)c2cccc(C(=O)NCCCn3ccnc3)c2)cc1 | – | inactive: -0.265%
7 | CC1(C)Cc2c(sc3nc(-c4cccs4)n(N)c(=O)c23)CO1 | active: 6.01 µM | –
8 | C/C(=N/NC(=O)c1cccs1)c1ccco1 | active: 16.9 µM | –
9 | CS(=O)(=O)c1ccc2nc(NC(=O)C3COc4ccccc4O3)sc2c1 (stereo not given) | active: 10.7 µM | –
10 | Cc1ccc(CSC2=Nc3ccccc3C3=NC(CC(=O)NCc4ccc5c(c4)OCO5)C(=O)N23)cc1 (stereo not given) | inconclusive: 37.9 µM [inhibitor, partial curve, poor fit] | –
11 | Cc1ccc(COc2ccc(C(=O)NN)cc2)cc1 | inconclusive: 26.9 µM [inhibitor, single point] | –
12 | COc1cc(/C=C2/SC(=S)N(c3c(C)n(C)n(-c4ccccc4)c3=O)C2=O)ccc1O | inconclusive: 19 µM [inhibitor, single point] | –
13 | COc1cc(/C=N/NC(=S)N/N=C/c2cc(OC)c(OC)c(OC)c2)cc(OC)c1OC | active: 0.213 µM | –
14 | Cc1c(C(=O)Oc2cccc3cccnc23)oc2ccccc12 | inconclusive: 26.9 µM [inhibitor, partial curve, poor fit] | –
15 | Cc1ccc(Nc2nc(COC(=O)COc3ccc(C=O)cc3)cs2)cc1 | active: 2.69 µM | –
16 | CC(=O)c1ccc(NC2=C(N3CCOCC3)C(=O)c3ccccc3C2=O)cc1 | inconclusive: 37.9 µM [inhibitor, partial curve, poor fit] | –
17 | COc1ccccc1NC(=O)c1ccc2nsnc2c1 | active: 15.1 µM | –
18 | CCN(CC)S(=O)(=O)c1ccc2c(c1)c(=O)c(C(=O)N1CCN(c3cccc(Cl)c3)CC1)cn2C | – | inactive: -3.84%
19 | CCN(CC)c1cccc(OCC(=O)N2c3ccccc3CC2C)c1 (stereo not given) | inconclusive: 37.9 µM [inhibitor, single point] | –
20 | Cc1ccc(Nc2nnc(SCc3ccccc3)s2)cc1 | inconclusive: 3.79 µM [inhibitor, full curve] | –
21 | Cn1c(=O)oc2cc(S(=O)(=O)NC(Cc3ccccc3)C(=O)NCc3ccccc3Cl)ccc21 (stereo not given) | – | inactive: 3.6%
22 | O=C(NCCc1ccccc1)c1ccc2c(c1)OCCCO2 | active: 0.0601 µM | –
23 | C=CCn1c(C)nnc1SCC(=O)Nc1oc(C)c2c(C)n[nH]c(=O)c12 | – | inactive: -2.49%

Row | SMILES | Potency | activity change, negative = inhibition
24 | COc1ccc(/C=C/c2nc(-c3ccccc3O)n[nH]2)cc1OC | active: 12 µM | –
25 | CCc1ccc(C(=O)c2cn(CC(=O)Nc3ccc4c(c3)OCO4)c3ccc(F)cc3c2=O)cc1 | – | inactive: -5.2%
26 | CCOc1ccccc1CNC(=O)C1CCN(c2nc3ccccc3nc2C(F)(F)F)CC1 | – | inactive: -2.26%
27 | CCOC(=O)c1cccc(Nc2nc(C)cc(C)n2)c1 | inconclusive: 9.53 µM [inhibitor, partial curve] | –
28 | O=C(O)CSc1ncnc2sc3c(c12)CCCC3 | inconclusive: 21.3 µM [inhibitor, partial curve, poor fit] | –
29 | COc1ccc(-c2csc(Nc3ccccc3)[n+]2Cc2ccccc2)cc1 | inconclusive: 37.9 µM [inhibitor, partial curve, poor fit] | –
30 | CCn1c(CN2CCCCC2)nc2cc(NC(=O)c3cccc([N+](=O)[O-])c3)ccc21 | – | inactive: -1.25%
31 | CCOc1ccc(N(CC(=O)Nc2ccc(Br)cc2)S(C)(=O)=O)cc1 | inconclusive: 21.3 µM [inhibitor, single point] | –
32 | Cc1c(C(=O)Nc2cccc(-c3nc4ccccc4s3)c2)oc2ccc(F)cc12 | inconclusive: 3.38 µM [inhibitor, partial curve, poor fit] | –
33 | N#Cc1cccc(NC(=O)C2CCN(c3nc(-c4ccc(Cl)cc4)no3)CC2)c1 | – | inactive: -4.18%
34 | Cc1ccc(CCNC(=O)CSCc2nc(-c3ccc(C)cc3)oc2C)cc1 | inconclusive: 37.9 µM [inhibitor, partial curve, poor fit] | –
35 | CCOc1ccc(-c2nnc(SCC(=O)Nc3cc(C)ccc3OC)o2)cc1 | inconclusive: 8.49 µM [inhibitor, partial curve, poor fit] | –
36 | CCCCn1cnc2c([nH]c3cc(OC)ccc32)c1=O | inconclusive: 23.9 µM [inhibitor, single point] | –
37 | COc1ccc(CCN2CC(C(=O)NCCc3ccccc3C(F)(F)F)CCC2=O)cc1 (stereo not given) | inconclusive: 23.9 µM [inhibitor, partial curve] | –
38 | CN1C(=O)/C(=C\c2cc(N=Nc3ccccc3)ccc2O)SC1=S | inconclusive: 15.1 µM [inhibitor, partial curve] | –
39 | Nc1ccn(Cc2ccccc2)n1 | inconclusive: 10.7 µM [inhibitor, partial curve, poor fit] | –
40 | CC(=O)Nc1ccc(C(=O)Nc2cccc(S(=O)(=O)NC3=NCCC3)c2)cc1 | inconclusive: 21.3 µM [inhibitor, single point] | –
41 | O=C(N/N=C/c1cn(-c2ccccc2)nc1-c1cccs1)c1ccccc1F | active: 21.3 µM | –
42 | CCCC(C)c1nnc(NC(=O)C(=O)OCC)s1 (stereo not given) | inconclusive: 37.9 µM [inhibitor, partial curve, poor fit] | –
43 | CCC(C)NC(=O)COc1ccc(OCc2ccccc2)cc1 (stereo not given) | inconclusive: 30.1 µM [inhibitor, partial curve, poor fit] | –
44 | O=C(N/N=C/c1ccc(Cl)cc1Cl)c1ccncc1 | inconclusive: 23.9 µM [inhibitor, single point] | –
45 | Cn1c2c(c(=O)n(C)c1=O)C(C(F)(F)F)(C(F)(F)F)N=C(CCC1CCCCC1)N2 | – | inactive: -1.73%
